Experimental data taken from the supplement of paper PMC7125110.
± gives the standard error. This sample is rich in variants without activity.

B1: glmS ribozyme (parent)
chain: AUAAAAGCGCCAGAACUACAGAAAUGUAGUUGACGAGGAGGAGGUUUAUCGAAUUUUCGGCGGAUGCCUCCAAA

Columns and labels:
Settings in all cases: with glucosamine-6-phosphate
glucosamine-6-phosphate [1] = variants of: B1; assay: self-cleavage kobs at 40 uM GlcN6P; higher = faster cleavage; RNA array
Outline: (§1)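 Ribozyme variants carrying barcodes were transcribed in situ on sequenced MiSeq chips by E. coli RNA polymerase and tracked at 37 °C with a hybridised Cy3 probe. They were exposed to 40 μM to 10 mM glucosamine-6-phosphate in HEPES/KCl/Mg(OAc)2 buffer. kobs came from exponential decay fits of normalised per-tile medians, and kcat and KM from weighted Michaelis–Menten fits.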

glucosamine-6-phosphate [2] = variants of: B1; assay: self-cleavage kobs at 10000 uM GlcN6P; higher = faster cleavage; RNA array
Outline: as §1

glucosamine-6-phosphate [3] = variants of: B1; assay: self-cleavage kobs at 2500 uM GlcN6P; higher = faster cleavage; RNA array
Outline: as §1

glucosamine-6-phosphate [4] = variants of: B1; assay: self-cleavage kobs at 640 uM GlcN6P; higher = faster cleavage; RNA array
Outline: as §1

glucosamine-6-phosphate [5] = variants of: B1; assay: self-cleavage kobs at 160 uM GlcN6P; higher = faster cleavage; RNA array
Outline: as §1

Row | Variant | self-cleavage kobs at 40 uM GlcN6P (glucosamine-6-phosphate [1]) [s⁻¹] | self-cleavage kobs at 10000 uM GlcN6P (glucosamine-6-phosphate [2]) [s⁻¹] | self-cleavage kobs at 2500 uM GlcN6P (glucosamine-6-phosphate [3]) [s⁻¹] | self-cleavage kobs at 640 uM GlcN6P (glucosamine-6-phosphate [4]) [s⁻¹] | self-cleavage kobs at 160 uM GlcN6P (glucosamine-6-phosphate [5]) [s⁻¹]
1 | U30G G43C G63A U65A | < 1e-05 | < 1e-05 |  |  | 
2 | U27G A33C G51C | < 1e-05 |  |  |  | 
3 | U30A G43A A52C U55C C70U | < 1e-05 |  | < 1e-05 |  | 
4 | G29A C34A G43A G44U U47C G59A G63U | < 1e-05 | < 1e-05 |  |  | 
5 | U30G G63U | < 1e-05 | < 1e-05 | < 1e-05 | < 1e-05 | < 1e-05
6 | G29C G43U C67U | < 1e-05 | < 1e-05 |  |  | 
7 | U31G A48U A64C | < 1e-05 | < 1e-05 |  |  | 
8 | G29C G37A G38U | < 1e-05 |  |  |  | 
9 | G29C G43A U47A U54G C67G | < 1e-05 | < 1e-05 |  |  | 
10 | U30C A48G | < 1e-05 | < 1e-05 |  |  | < 1e-05
11 | G29U G40C A52G | < 1e-05 |  |  |  | 
12 | U31A A36C U49A U65A | < 1e-05 | < 1e-05 |  |  | 
13 | G29A G41C | < 1e-05 |  |  |  | 
14 | U30A G62C | < 1e-05 | < 1e-05 |  | < 1e-05 | < 1e-05
15 | G29U C50G G60U C67A | 9.35e-05 ± 1.9e-05 | 0.000133 ± 3e-05 |  |  | 
16 | U30C A39C G41U | < 1e-05 | < 1e-05 |  |  | 
17 | G29A A48U U54A | < 1e-05 | 3.57e-05 ± 1.5e-05 |  |  | 
18 | G29U C34G A48G | < 1e-05 | < 1e-05 |  |  | 
19 | U30G U54C | 0.000148 ± 2.5e-05 | 0.00714 ± 0.001 | 0.00471 ± 0.0008 | 0.00235 ± 0.00041 | 0.000617 ± 0.00011
20 | U30G A39U | 0.000127 ± 2.3e-05 | 0.00645 ± 0.00095 | 0.00224 ± 0.00096 | 0.000857 ± 0.00016 | 0.000455 ± 8.4e-05
21 | U31C C34U U65C | < 1e-05 | < 1e-05 | < 1e-05 |  | 
22 | C16U G66A | 0.000448 ± 9.7e-05 | 0.0329 ± 0.014 | 0.00873 ± 0.0019 | 0.00417 ± 0.00068 | 0.00133 ± 0.00023
23 | G29A U45G G60C | < 1e-05 | < 1e-05 | < 1e-05 |  | 
24 | U31C G35U | < 1e-05 |  | < 1e-05 |  | < 1e-05
25 | U31C G35A | < 1e-05 | < 1e-05 | < 1e-05 | < 1e-05 | < 1e-05
26 | G29C G41A | < 1e-05 |  |  |  | 
27 | G29C G41U | < 1e-05 |  |  |  | 

Row | Variant | self-cleavage kobs at 40 uM GlcN6P (glucosamine-6-phosphate [1]) [s⁻¹] | self-cleavage kobs at 10000 uM GlcN6P (glucosamine-6-phosphate [2]) [s⁻¹] | self-cleavage kobs at 2500 uM GlcN6P (glucosamine-6-phosphate [3]) [s⁻¹] | self-cleavage kobs at 640 uM GlcN6P (glucosamine-6-phosphate [4]) [s⁻¹] | self-cleavage kobs at 160 uM GlcN6P (glucosamine-6-phosphate [5]) [s⁻¹]
28 | C16U G63C C67G | < 1e-05 |  |  |  | 
29 | U31A U49A | < 1e-05 |  | < 1e-05 | < 1e-05 | < 1e-05
30 | U30C G60C | < 1e-05 | < 1e-05 |  |  | 
31 | G29C A33U G51A | < 1e-05 |  |  |  | 
32 | U30A A52U U54A C71A | < 1e-05 |  |  |  | 
33 | G29C U45A U46A A52U | < 1e-05 |  |  | < 1e-05 | 
34 | G29A C61U | < 1e-05 |  | < 1e-05 | < 1e-05 | < 1e-05
35 | U31C U54A G62U | < 1e-05 |  |  |  | 
36 | U31A G62A | < 1e-05 | < 1e-05 |  |  | < 1e-05
37 | U30G A42U G43U A48U G59U | < 1e-05 |  |  |  | 
38 | G29C G43C | < 1e-05 | < 1e-05 |  | < 1e-05 | 
39 | U31G A48C | < 1e-05 |  |  |  | 
40 | U31G G35C | < 1e-05 |  | < 1e-05 | < 1e-05 | < 1e-05
41 | G29C G51U U55G | < 1e-05 | < 1e-05 |  |  | 
42 | U31G A36U A52C G63C | < 1e-05 |  |  |  | 
43 | U31G A64U | < 1e-05 |  | < 1e-05 | < 1e-05 | < 1e-05
44 | U31C C61G C68A | < 1e-05 | < 1e-05 |  |  | 
45 | C19A U56G C68U | 0.000112 ± 3.6e-05 | 0.000435 ± 9.2e-05 | 0.00041 ± 7.6e-05 |  | 
46 | G29U G41A U45G A53G | < 1e-05 |  |  |  | 
47 | G29C U56G C70U | 6.27e-05 ± 2.2e-05 | 0.00013 ± 3.2e-05 |  |  | 
48 | C16U U30G A33G U45G | < 1e-05 | < 1e-05 |  |  | 
49 | A24C A48C G62U G63U C70G | < 1e-05 |  |  |  | 
50 | G29U A42G G43A | < 1e-05 |  |  |  | 
51 | G29A G35U C50U | < 1e-05 | < 1e-05 |  |  | 
52 | U31A A39C | 5.43e-05 ± 7.8e-06 | 0.00166 ± 0.0003 | 0.000973 ± 0.00011 | 0.000525 ± 4.9e-05 | 0.000105 ± 1.4e-05
53 | U31A A33G G38A C67U | < 1e-05 |  |  |  | 
54 | U31G A33C | < 1e-05 |  |  |  | 
